# How the values were obtained:
# ErbB3 (human) [1] = target: ErbB3 (human) (UniProt P21860); assay: two-colour single molecule co-localisation and tracking (TOCCSL, TIR microscopy); live CHO-ErbB2-ErbB3 cells treated with pertuzumab (PRT); no HRG; labels as for the homo- and heterodimerization experiments; room temperature
# ErbB3 (human) [2] = target: ErbB3 (human) (UniProt P21860); assay: two-colour single molecule co-localisation and tracking (TOCCSL, TIR microscopy); live CHO-ErbB3 cells (no ErbB2), labelled with AF488-ErbB3-Fab and AF647-ErbB3-Fab; in the presence of 200 ng/mL (25 nM) HRG; room temperature
# ErbB3 (human) [3] = target: ErbB3 (human) (UniProt P21860); assay: two-colour single molecule co-localisation and tracking (TOCCSL, TIR microscopy); live CHO-ErbB2-ErbB3 cells; AF488-ErbB3-Fab and AF647-ErbB3-Fab for homodimers, AF488-ErbB2-Fab and AF647-ErbB3-Fab for heterodimers; no HRG, no pertuzumab; room temperature
# ErbB3 (human) [4] = target: ErbB3 (human) (UniProt P21860); assay: two-colour single molecule co-localisation and tracking (TOCCSL, TIR microscopy); live CHO-ErbB2-ErbB3 cells; AF488-ErbB3-Fab and AF647-ErbB3-Fab for homodimers, AF488-ErbB2-Fab and AF647-ErbB3-Fab for heterodimers; with 200 ng/mL (25 nM) HRG, no pertuzumab; room temperature
# ErbB3 (human) [5] = target: ErbB3 (human) (UniProt P21860); assay: two-colour single molecule co-localisation (TOCCSL), global analysis of the homo- and heterodimerization experiments; CHO-ErbB2-ErbB3 cells; data of the separate ErbB3 homodimer and ErbB3/ErbB2 heterodimer experiments analysed together with a mathematical model of ErbB3 homodimers, ErbB3/ErbB2 heterodimers and ErbB3 monomers; with HRG
# ErbB3 (human) [6] = target: ErbB3 (human) (UniProt P21860); assay: two-colour single molecule co-localisation and tracking (TOCCSL, TIR microscopy); live CHO-ErbB3 cells (no ErbB2) on fibronectin-coated coverglass, labelled with AF488-ErbB3-Fab and AF647-ErbB3-Fab; no HRG; room temperature; signals within 160 nm counted as co-localised; fractions corrected for labelling and for the diffusion of monomers and dimers
# ErbB3 (human) [7] = target: ErbB3 (human) (UniProt P21860); assay: as above; remark: listed apart in the source
# ErbB3, sequence (chain, as listed by the source): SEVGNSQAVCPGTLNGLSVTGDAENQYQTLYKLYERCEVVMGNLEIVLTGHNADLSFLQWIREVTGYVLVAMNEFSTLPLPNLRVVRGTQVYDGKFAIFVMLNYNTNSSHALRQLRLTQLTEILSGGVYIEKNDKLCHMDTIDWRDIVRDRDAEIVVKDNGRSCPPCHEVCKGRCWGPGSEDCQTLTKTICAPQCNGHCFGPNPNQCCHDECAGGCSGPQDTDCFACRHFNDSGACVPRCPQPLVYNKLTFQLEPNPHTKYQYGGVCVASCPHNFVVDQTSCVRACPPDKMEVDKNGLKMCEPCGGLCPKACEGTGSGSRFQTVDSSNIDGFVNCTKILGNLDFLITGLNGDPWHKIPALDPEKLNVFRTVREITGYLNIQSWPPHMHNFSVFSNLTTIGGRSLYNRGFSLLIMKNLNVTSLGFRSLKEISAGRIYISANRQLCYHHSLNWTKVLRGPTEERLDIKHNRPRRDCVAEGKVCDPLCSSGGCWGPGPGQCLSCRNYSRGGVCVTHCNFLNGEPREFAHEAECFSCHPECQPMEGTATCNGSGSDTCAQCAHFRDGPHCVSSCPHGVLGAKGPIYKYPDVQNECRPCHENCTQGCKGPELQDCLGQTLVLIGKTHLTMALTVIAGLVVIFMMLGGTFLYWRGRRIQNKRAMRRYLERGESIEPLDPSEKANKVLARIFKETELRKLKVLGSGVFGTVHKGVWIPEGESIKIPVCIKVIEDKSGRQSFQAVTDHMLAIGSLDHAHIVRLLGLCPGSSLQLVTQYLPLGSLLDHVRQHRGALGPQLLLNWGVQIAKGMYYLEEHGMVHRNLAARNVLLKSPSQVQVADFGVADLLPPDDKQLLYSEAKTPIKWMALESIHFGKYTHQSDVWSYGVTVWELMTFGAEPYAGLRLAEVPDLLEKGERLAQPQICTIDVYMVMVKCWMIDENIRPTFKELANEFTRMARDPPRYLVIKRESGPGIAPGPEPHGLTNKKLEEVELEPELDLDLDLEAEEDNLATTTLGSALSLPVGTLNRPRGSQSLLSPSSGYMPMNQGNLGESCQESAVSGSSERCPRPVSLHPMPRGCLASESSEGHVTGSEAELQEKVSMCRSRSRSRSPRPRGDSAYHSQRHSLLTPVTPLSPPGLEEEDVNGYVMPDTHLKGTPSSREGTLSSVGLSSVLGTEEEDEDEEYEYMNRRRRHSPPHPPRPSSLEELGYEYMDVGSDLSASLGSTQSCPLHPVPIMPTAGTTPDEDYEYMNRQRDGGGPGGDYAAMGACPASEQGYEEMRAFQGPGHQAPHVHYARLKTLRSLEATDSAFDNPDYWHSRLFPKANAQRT
substance,measurement,setting,value
"ErbB3 (a stretch of the chain, sequence left out) (receptor; other documents disagree on this pair)",percent of ErbB3 in homodimers,ErbB3 (human) [1],26%
same,percent of ErbB3 in homodimers,ErbB3 (human) [2],80%
same,percent of ErbB3 in homodimers,ErbB3 (human) [3],70%
same,percent of ErbB3 in homodimers,ErbB3 (human) [4],90%
same,percent of ErbB3 in homodimers (global analysis),ErbB3 (human) [5],45%
same,percent of ErbB3 in homodimers,ErbB3 (human) [6],10%
same,percent of ErbB3 in homodimers,ErbB3 (human) [7],23%
